In the supplement of paper PMC10441789:
The other results are listed elsewhere or left out. Antibody binding of pooled human sera (four to six donors per pool; dilution not stated) to peptides of the Trypanosoma cruzi antigen TSSA on microarrays. Quantile-normalised fluorescence in arbitrary units, mean of duplicate arrays; higher = more binding. No active / inactive call. The uninfected pools are read here as the healthy donors of the same country. The strongest signals lie near the top of the scale (about 60,000).

Key:
Experiment in all cases: antibody binding signal (normalised fluorescence) (arbitrary fluorescence units); higher = stronger serum antibody binding to peptide
[1] = system: pooled sera of chronic Chagas disease patients, Argentina
Experimental: (§1)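 Microarray of 15-residue peptides over residues 30-55 of Trypanosoma cruzi TSSAII, each with 1 to 10 substitutions at naturally variable positions, probed with one serum pool per country.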

[2] = system: pooled sera of chronic Chagas disease patients, Bolivia
Experimental: as §1

[3] = system: pooled sera of chronic Chagas disease patients, Brazil
Experimental: as §1

[4] = system: pooled sera of chronic Chagas disease patients, Colombia
Experimental: as §1

[5] = system: pooled sera of chronic Chagas disease patients, Mexico
Experimental: as §1

[6] = system: pooled sera of chronic Chagas disease patients, USA
Experimental: as §1

[7] = system: pooled sera of uninfected people, Argentina
Experimental: as §1

[8] = system: pooled sera of uninfected people, Bolivia
Experimental: as §1

[9] = system: pooled sera of uninfected people, Brazil
Experimental: as §1

[10] = system: pooled sera of uninfected people, Mexico
Experimental: as §1

[11] = system: pooled sera of uninfected people, USA
Experimental: as §1

Sequence	antibody binding signal [1]	antibody binding signal [2]	antibody binding signal [3]	antibody binding signal [4]	antibody binding signal [5]	antibody binding signal [6]	antibody binding signal [7]	antibody binding signal [8]	antibody binding signal [9]	antibody binding signal [10]	antibody binding signal [11]
TDKKPATGETPSPPG	29000	26300	29700	444	352	23600	127	430	234	1640	1270
KDKKTAAGGTPSQPG	248	210	248	3440	185	1360	249	91.7	232	162	116
PSGTDKKAAAGETPS	2600	540	6980	6950	2200	2240	239	545	233	1700	236
TPPSGTDKKAATGET	8480	13600	25300	4320	15300	1410	232	150	375	1650	148
PPSGTDNKTAAGGTP	34500	26400	46900	2890	1790	3550	390	789	2220	1780	325
TPPSGKENKAAAGEA	24600	10300	2870	461	3410	3980	2700	1820	374	223	269
KDKKTAAGGTPSPPG	248	211	197	2850	205	1490	98.7	101	239	80.7	124
NKPAAGGTPSQPGAS	199	296	8260	1750	216	421	690	991	1060	545	1490
STPPSGKDNKPAAGE	43500	34400	30900	312	36300	14500	504	633	293	266	221
KKPAAGGTPSQPGAS	171	201	244	1660	138	413	339	219	718	145	327
TDKKAAAGGAPSQSG	1130	234	505	5040	618	347	150	111	368	117	122
TISTPPSGKDNKAAA	7310	2450	3280	593	16400	2220	1180	469	445	134	454
TPPSGTDNKTAAGET	22700	30400	41700	418	3910	6730	465	490	593	135	169
KENKAATGGTPSPPG	221	390	282	163	214	375	134	79.1	161	79.3	129
PSGKEKKAATGGAPS	10800	2560	8720	13900	15600	7430	412	363	126	113	156
TENKAAAGGTPSPPG	36700	262	220	3070	353	960	100	146	1190	143	138
PPSGTDNKPATGGTP	27100	41200	48500	3800	3790	15600	972	1240	1110	1020	422
PSGKDNKPAAGETPS	4000	1500	11200	4950	5180	8690	834	1480	285	327	160
TEKKPATGGAPSPPG	2560	4260	2030	3500	1470	3340	450	1450	317	268	1020
KDKKTAAGETPSPPG	145	182	157	185	179	771	124	103	114	77.6	222
SGTDNKPATGGTPSP	4690	2040	44000	4030	599	630	217	898	485	491	246
GKEKKAATGGAPSQP	2900	393	1300	2080	1980	1780	210	107	93	80.2	81.2
TDKKTAAGETPSPPG	276	360	353	456	351	3260	115	200	222	160	1110
PSGTDKKPATGETPS	31800	22400	35100	4760	1710	23700	187	644	501	4730	270
GTDKKPATGETPSPP	33400	23500	30200	7490	452	22500	175	522	211	1850	477
GTENKPATGETPSPP	42300	32700	36200	1220	2720	27800	413	1070	342	1790	614
KDKKAATGEAPSPSG	7810	5110	14500	148	212	16600	268	86.5	106	73.9	103
